The text below walks through data of patent publication US20100075377A1 (published 2010).

The target in this experiment is T1, PD-1 expressed on transfected BHK 570 cells (UniProt Q15116 25-288, limits assumed).
T1 construct: whole, on cells; also called cell surface PD-1
Put plainly: competition of unlabelled protein with 250 pM 125I-B7H1VASP-His6 on BHK cells expressing PD-1.

T1 sequence (Q15116 25-288 limits assumed): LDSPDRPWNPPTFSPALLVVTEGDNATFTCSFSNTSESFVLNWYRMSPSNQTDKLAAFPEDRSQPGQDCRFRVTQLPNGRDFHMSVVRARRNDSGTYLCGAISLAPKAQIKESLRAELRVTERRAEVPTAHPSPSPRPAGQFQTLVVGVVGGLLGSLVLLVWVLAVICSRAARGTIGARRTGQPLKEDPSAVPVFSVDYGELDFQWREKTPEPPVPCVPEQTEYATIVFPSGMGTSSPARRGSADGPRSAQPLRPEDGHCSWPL

B1: B7H1VASP-His6 (tetrameric fusion of the B7H1 extracellular domain, VASP tetramerization domain and His6 tag) (ligand)
chain: not shown
modifications: 125I-labelled in the tracer form (IODO-TUBES; sites not stated); the unlabelled form was used as competitor
notes: Made in BHK570 cells; SEC-MALS is consistent with a tetramer; also called B7H1-VASP fusion protein; zB7H1VASP
Turning to B1, the “fold greater affinity, as compared to B7H1IgG” value was found to be 10 fold.
